Paper PMC4336329 (PLoS ONE, 2015)
Screen size: about 310,000 compounds; about 2,200 (0.71%) showed an effect of 50% or more. The effect is printed as a negative number. The list shows a part of the results.

The compounds below were run against human ether-à-go-go-related gene (hERG) potassium channel (human, UniProt Q12809) (assay: primary screen, population patch clamp on CHO cells stably expressing hERG).
human ether-à-go-go-related gene (hERG) potassium channel, sequence (Q12809 whole entry, looked up): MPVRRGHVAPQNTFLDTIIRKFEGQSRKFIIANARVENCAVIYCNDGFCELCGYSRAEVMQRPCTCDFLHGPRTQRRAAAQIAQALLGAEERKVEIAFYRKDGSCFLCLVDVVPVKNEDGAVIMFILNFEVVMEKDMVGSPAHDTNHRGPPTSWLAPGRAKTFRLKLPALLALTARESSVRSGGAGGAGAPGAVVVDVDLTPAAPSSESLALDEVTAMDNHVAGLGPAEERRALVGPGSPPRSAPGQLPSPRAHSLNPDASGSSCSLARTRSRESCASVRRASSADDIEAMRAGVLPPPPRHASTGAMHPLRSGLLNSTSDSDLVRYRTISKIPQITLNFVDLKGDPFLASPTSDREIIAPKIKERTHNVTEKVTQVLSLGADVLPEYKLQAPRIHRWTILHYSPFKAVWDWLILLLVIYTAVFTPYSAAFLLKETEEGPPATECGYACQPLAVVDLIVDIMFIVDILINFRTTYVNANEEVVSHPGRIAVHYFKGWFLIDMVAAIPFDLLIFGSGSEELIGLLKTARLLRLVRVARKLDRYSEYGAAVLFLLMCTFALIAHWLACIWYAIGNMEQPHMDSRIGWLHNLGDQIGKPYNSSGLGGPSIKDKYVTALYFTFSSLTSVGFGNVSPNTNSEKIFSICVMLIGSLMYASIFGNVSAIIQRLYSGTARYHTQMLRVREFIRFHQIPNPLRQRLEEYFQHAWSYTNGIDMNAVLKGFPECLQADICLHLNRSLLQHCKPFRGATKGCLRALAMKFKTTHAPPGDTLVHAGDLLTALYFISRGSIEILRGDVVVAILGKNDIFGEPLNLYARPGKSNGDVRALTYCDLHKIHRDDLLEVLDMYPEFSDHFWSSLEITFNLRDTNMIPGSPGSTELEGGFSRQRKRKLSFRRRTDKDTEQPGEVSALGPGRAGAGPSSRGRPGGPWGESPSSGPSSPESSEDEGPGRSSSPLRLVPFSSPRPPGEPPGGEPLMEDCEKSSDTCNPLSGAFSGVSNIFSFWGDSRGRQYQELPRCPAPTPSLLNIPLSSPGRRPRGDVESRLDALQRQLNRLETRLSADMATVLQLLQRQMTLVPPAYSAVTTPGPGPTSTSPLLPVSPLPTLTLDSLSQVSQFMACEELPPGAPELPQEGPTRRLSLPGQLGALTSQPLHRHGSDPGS

| Structure (SMILES) | hERG current change (%, negative = inhibition) at 1uM [%] |
| --- | --- |
| Nc1c(C(=O)NC2CC2)sc2nc3c(c(-c4ccco4)c12)CC/C3=C/c1ccco1 | 14.9 |
| CC(=O)Nc1nc(C(=O)O)cs1 | 13.9 |
| CC(=O)Nc1ccc(SC[C@H](Cc2ccccc2)N2CC[C@@H](C)CCC2=O)cc1 | 13.1 |
| O=C(Cc1ccccc1)Nc1c[nH]c(=O)[nH]c1=O | 10.2 |
| O=C(OCc1ccccc1Cl)c1cc([N+](=O)[O-])ccc1N1CCOCC1 | 3.35 |
| CCn1nc(NS(=O)(=O)c2ccc([N+](=O)[O-])cc2)c2cc3cccc(C)c3nc21 | 29.6 |
| N#Cc1cc([N+](=O)[O-])cnc1Nc1ccccc1 | 7.07 |
| CCCC(=O)Nc1sc2c(c1C#N)CCCCC2 | -2.07 |
| COc1ccc(S(=O)(=O)N2CCN(C(=O)c3ccc([N+](=O)[O-])o3)CC2)cc1 | -6.05 |
| CCOc1ccc(-n2c(O)c(/C=C3\C=Nc4ccccc43)c(=O)[nH]c2=O)cc1 | 9.43 |
| Cn1cc([N+](=O)[O-])c(C(=O)Nc2nc(-c3ccc(Cl)cc3)cs2)n1 | 12.6 |
| CC(=O)c1ccc(OCCCC(=O)Nc2cccc(S(=O)(=O)N(C)C)c2)cc1 | -2.74 |
| C[C@@H](O)Cc1cn(CC(=O)NCCCCCCCCCCC(=O)N2CCNCC2)nn1 | 8.24 |
| Cc1ccc(OCC(=O)Nc2ccc3c(c2)OC(F)(F)O3)c([N+](=O)[O-])n1 | 19.4 |
| Cc1ccc2c(c1)N(CC(=O)NCCCN1CCCCC1)C(=O)CO2 | 0.609 |
| CCOC(=O)c1c(C)[nH]c(C(=O)CN(C)CC(=O)Nc2ccccc2C(F)(F)F)c1C | 7.04 |
| CCOCC(=O)N1CCN(c2ccccc2OC)CC1 | 11.8 |
| Cc1noc(C)c1CSCC(=O)NCCN1C(=O)S/C(=C\c2ccccc2F)C1=O | 3.65 |
| CCn1ncc(C2=NOC(C(=O)Nc3c(C)n(C)n(-c4ccccc4)c3=O)C2)c1C (stereo not drawn) | 19.1 |
| COc1cccc(-c2nnc3n2N=C(c2cc(OC)ccc2OC)CS3)c1 | 3.74 |
| COc1ccc2c(c1)Cc1sc(NC(C)=O)nc1-2 | 13 |
| O=C(/C=C/c1ccccc1)CC(=O)c1ccccc1O | 14.5 |
| O=C(Nc1ccc(OCC(=O)N2CCC(Cc3ccccc3)CC2)cc1)c1ccco1 | 6.07 |
| COCCN(CC(=O)NC1CCCCC1)C(=O)CCCC(=O)Nc1ccccn1 | 7.49 |
